Results published in PubChem BioAssay AID488969 (Vanderbilt High Throughput Screening Facility, 2010).
In all, about 110,000 compounds were measured (“z-score”: median about -0.1, highest 2% from about 2 on). The list shows a part of the results.

What follows are molecules tested against Metabotropic glutamate receptor 8 (Rattus norvegicus) (UniProt P70579) (assay: rat mGluR8 modulators via GIRK flux, primary screen, cell-based, thallium flux, HTS (AID 488969)). Conditions: HEK293 rat mGluR8, GIRK (G protein-gated inwardly rectifying potassium channel) thallium flux, FluoZin2; at 10 µM; stronger effect = higher value; submaximal glutamate (EC20) added with thallium.
UniProt P70579, sequence (P70579 whole entry, looked up): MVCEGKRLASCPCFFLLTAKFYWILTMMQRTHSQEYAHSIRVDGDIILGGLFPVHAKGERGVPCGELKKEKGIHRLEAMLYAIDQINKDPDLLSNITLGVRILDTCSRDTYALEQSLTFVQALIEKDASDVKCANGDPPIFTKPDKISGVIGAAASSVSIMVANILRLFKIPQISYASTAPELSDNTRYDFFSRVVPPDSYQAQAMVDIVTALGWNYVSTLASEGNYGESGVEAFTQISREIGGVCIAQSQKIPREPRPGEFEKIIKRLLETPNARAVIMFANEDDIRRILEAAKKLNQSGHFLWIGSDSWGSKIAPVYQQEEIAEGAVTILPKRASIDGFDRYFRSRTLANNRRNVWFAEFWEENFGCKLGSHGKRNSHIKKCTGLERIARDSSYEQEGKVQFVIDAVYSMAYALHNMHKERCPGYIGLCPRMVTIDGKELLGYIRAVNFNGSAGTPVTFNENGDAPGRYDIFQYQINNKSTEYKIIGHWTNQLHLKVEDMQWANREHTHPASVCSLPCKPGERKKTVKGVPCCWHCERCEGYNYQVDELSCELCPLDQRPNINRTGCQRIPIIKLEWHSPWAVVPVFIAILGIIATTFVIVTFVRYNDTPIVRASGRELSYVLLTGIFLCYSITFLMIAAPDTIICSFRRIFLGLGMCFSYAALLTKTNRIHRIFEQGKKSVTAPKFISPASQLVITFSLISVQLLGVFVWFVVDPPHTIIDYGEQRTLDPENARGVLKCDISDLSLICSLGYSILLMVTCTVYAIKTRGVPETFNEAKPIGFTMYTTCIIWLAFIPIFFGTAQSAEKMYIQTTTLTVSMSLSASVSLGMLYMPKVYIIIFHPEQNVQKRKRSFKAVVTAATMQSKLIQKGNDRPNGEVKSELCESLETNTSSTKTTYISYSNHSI

Row | Compound | z-score
1 | COc1cccc2cc(C(=O)N3C(C)CCCC3C)c(=O)oc12 (stereo not given) | -0.135
2 | CON(C)c1nc(NCC(C)C)nc(OCC#N)n1 | -0.285
3 | CCOC(=O)c1c(-c2cccs2)csc1NC(C)=O | -0.908
4 | CN(Cc1ccccc1)C(=O)COC(=O)C1=NNC(=O)CC1 | 0.282
5 | CCc1nc(C)ccc1OC(=O)C12CC3CC(CC(C3)C1)C2 | 0.238
6 | CC(=O)Nc1ccc(S(=O)(=O)N2CCN(C(=O)N3CCOCC3)CC2)cc1 | 0.101
7 | O=C(CC1Oc2ccccc2NC1=O)NC1CC1 (stereo not given) | 2.19
8 | O=C(Cn1cc(SCc2ccccc2Cl)c2ccccc21)N1CCOCC1 | 0.00877
9 | O=C1c2ccccc2C(=O)N1CCC(c1ccc(F)cc1)c1ccco1 (stereo not given) | 0.111
10 | COc1ccc(Sc2cnn(-c3ccccc3)c(=O)c2Cl)cc1 | -0.936
11 | O=C(c1ccc2c(c1)OCO2)[C@@H]1[C@@H]2C(=O)N(C3CCCCC3)C(=O)[C@@H]2C2c3ccccc3C=CN21 (stereo not given in full) | 0.463
12 | Cc1ccc2c(c1)c1ncn(CCC3=CCCCC3)c(=O)c1n2C | -0.0353
13 | COc1cc(-c2nnc(SC(C)C(=O)Nc3c(C)n(C)n(-c4ccccc4)c3=O)o2)cc(OC)c1OC (stereo not given) | -0.144
14 | COc1cccc(N(C(=O)Cn2nnc(-c3cccs3)n2)C(C(=O)NC2CCCCC2)c2ccncc2)c1 (stereo not given) | 0.235
15 | Cc1noc(C)c1CSCC(=O)N1CCN(c2ccc(F)cc2)CC1 | 0.94
16 | Cc1cc(C)n2[nH]c(=O)c(N=Nc3cccc(Cl)c3)c2n1 | 0.381
17 | O=c1[nH]c2ccc(NC(=S)Nc3ccccc3Cl)cc2[nH]1 | -0.108
18 | C=CCOc1ccc2ccccc2c1CNc1ncn[nH]1 | -0.514
19 | O=C(Cc1ccc(Cl)cc1)Nc1ccc(N2CCN(C(=O)c3ccco3)CC2)cc1 | 0.107
20 | CCCOc1ccc(CN(CCO)CCO)cc1[N+](=O)[O-] | -0.272
21 | CCOC(=O)c1c(C)[nH]c(C(=O)CSc2nnc(-c3cccs3)n2Cc2ccccc2)c1C | -0.0745
22 | C/C(=N\NC(=O)COc1ccc(C(C)(C)C)cc1)c1ccc(-n2ccnc2)cc1 | 0.123
23 | COc1ccc(C2CC(c3cccs3)=Nc3ccccc3S2)cc1OC (stereo not given) | 0.0427
24 | CCO/C(C)=N/n1c2nc3ccccc3nc2c2c(=O)n(CC(C)C)c(C)nc21 | -0.194

Row | Compound | z-score
25 | O=C(Nc1ccc2oc(-c3ccc4ccccc4c3)nc2c1)c1cccs1 | -0.186
26 | O=C(N/N=C/c1ccc(-c2ccc(S(=O)(=O)Nc3ncccn3)cc2)o1)c1cc2ccccc2cc1O | -0.469
27 | CC(C)c1ccc(NS(=O)(=O)c2cn(C)c(=O)n(C)c2=O)cc1 | -0.372
28 | CCOCc1nnc(NC(=O)CCc2ccccc2)s1 | 0.507
29 | O=C(COc1ccc(Cl)cc1)N1CCCCC1 | 1.88
30 | CCOc1ccc(C2C=C(c3ccccc3)Nc3nnnn32)cc1 (stereo not given) | -0.108
31 | c1ccc(-n2ncc3c(N4CCC5(CC4)OCCO5)ncnc32)cc1 | 0.0111
32 | CC(C)NCCCOc1ccc(Cl)cc1Br | 0.892
33 | COC(=O)c1cc(CNC(=O)c2cccc(Cl)c2Cl)ccc1OC | -0.263
34 | Cc1ccc(NC(=O)Cc2csc(-c3ccccc3)n2)cc1F | 0.0327
35 | CCOc1ccc(C(C)NC(=O)Nc2ccccc2C(=O)OC)cc1 (stereo not given) | -1.3
36 | CC(C)c1onc(C(=O)NCc2ccc(Cl)cc2)c1[N+](=O)[O-] | -0.0253
37 | CCOC(=O)C1CCN(C(=O)CS(=O)Cc2nc(-c3ccc(C)cc3)oc2C)CC1 (stereo not given) | 0.334
38 | Cc1ccc(-c2nnn(CC(=O)N(CC(=O)NC3CCCCC3)c3ccc(F)c(Cl)c3)n2)o1 | 0.293
39 | CN=C1c2cc3c(Br)c(OC)ccc3n2CCN1C | 0.218
40 | Cc1ccc(N(CC(=O)N/N=C/c2cccs2)S(C)(=O)=O)cc1 | 0.245
41 | Cc1sc2ncnc(OCC(=O)N3CCN(S(=O)(=O)c4ccccc4)CC3)c2c1C | 0.459
42 | CCOC(=O)c1sc2cc([N+](=O)[O-])cc(SCCO)c2c1N | -0.16
43 | Cc1cc(/N=C/N(C)C)on1 | -0.0351
44 | Fc1ccc(NC(=S)N2N=CCC2c2ccccc2)cc1 (stereo not given) | -0.117
45 | O=C(COc1ccc(C(=O)c2ccccc2)cc1)NC1CCCCC1 | -0.0497
46 | COc1ccc(N2C(=O)/C(=C3/C=CC=CN3C)SC2=S)cc1 | 0.0179
47 | CCc1ccc(Cn2nnc(C(=O)Nc3cccc(C)c3)c2N)cc1 | 0.514
48 | CCCNC(=O)COc1ccccc1[N+](=O)[O-] | -0.112

Row | Compound | z-score
49 | COc1ccc(C(=O)NCC(=O)OCC(=O)N2CC(C)CC(C)C2)cc1 (stereo not given) | 0.156
50 | COc1ccc(/C=N/NS(=O)(=O)c2ccccc2)cc1OS(=O)(=O)c1ccccc1 | -0.712
51 | COc1ccc(-c2nnc(SCc3nnc(-c4cccs4)o3)n2CC2CCCO2)cc1 (stereo not given) | -0.126
52 | Cc1cc(C)c2cccc(NC(=S)NC(=O)c3ccccc3)c2n1 | 0.2
53 | Cc1ccc(N2C(=O)C(Cl)=C(NCc3ccccc3)C2=O)c(C)c1 | 0.139
54 | COc1ccc(/C=N/N=C2/NC(=O)C(CC(=O)O)S2)cc1OCc1ccc(Cl)cc1Cl (stereo not given) | -0.123
55 | Cc1ccc(-n2cccc2/C=C2/C(=N)N3C(=NC2=O)SN=C3S(C)(=O)=O)cc1Cl | 0.702
56 | O=C(NCc1ccc2c(c1)OCO2)c1ccc(CS(=O)(=O)Cc2cccc(Cl)c2)o1 | -0.218
57 | CCCCOC(=O)Nc1sc2nc(C)cc(C)c2c1-n1cccc1 | -0.237
58 | CC1CC(C)CN(c2ccc([N+](=O)[O-])cc2-c2nn[nH]n2)C1 (stereo not given) | -0.258
59 | Cc1cc(C)cc(NC(=S)NCCCO)c1 | -0.119
60 | O=C(CSc1nnc(-c2ccccc2Cl)n1Cc1ccco1)Nc1ccc2c(c1)OCCO2 | -0.435
61 | CN(C)c1nc(Oc2ccc(=O)[nH]n2)nc(N2CCOCC2)n1 | -0.115
62 | CCOc1cccc(OCCCCn2ccnc2)c1 | -0.196
63 | Cc1ccc(CCNC(=O)C2CCCN(S(=O)(=O)c3cccs3)C2)cc1 (stereo not given) | -0.0308
64 | O=C(CNc1ccccc1)N/N=C/c1c[nH]c2ccccc12 | 0.178
65 | Cc1ccccc1-n1c(=O)c2ccccc2n2nnnc12 | 0.0179
66 | COC(=O)CC1(c2cccc3ccccc23)C(=O)c2ccccc2C1=O | -0.561
67 | O=C(NCCCc1ccccc1)c1cccs1 | -0.216
68 | Cc1nn(S(=O)(=O)N(C)C)c(C)c1CN1C(=O)c2ccccc2C1=O | 1.76
69 | O=C1c2cccnc2C(O)N1Cc1ccc(F)cc1 (stereo not given) | 0.13
70 | COc1cc(SC)ccc1C(=O)Nc1ccc2c(c1)CCN2S(C)(=O)=O | -0.318
